Several values for one entry are separate records, joined by “and”; a condition that tells them apart may be missing. Identical values can stand only once.

T1: Myostatin (UniProt O14793 267-375)
T1 construct: bought protein; also called GDF-8; MST
T1 sequence (looked up): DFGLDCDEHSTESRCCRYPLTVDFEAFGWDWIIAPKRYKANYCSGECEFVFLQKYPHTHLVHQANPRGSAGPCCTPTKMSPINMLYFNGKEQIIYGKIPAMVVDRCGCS

T2: Activin A (UniProt P08476 311-426)
T2 sequence (looked up): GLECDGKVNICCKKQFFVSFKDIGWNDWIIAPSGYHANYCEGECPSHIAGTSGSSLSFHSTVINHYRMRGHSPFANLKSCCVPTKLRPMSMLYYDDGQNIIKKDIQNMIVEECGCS

T3: BMP-10 (UniProt O95393 317-424)
T3 construct: bought protein; also called bone morphogenic protein-10
T3 sequence (looked up): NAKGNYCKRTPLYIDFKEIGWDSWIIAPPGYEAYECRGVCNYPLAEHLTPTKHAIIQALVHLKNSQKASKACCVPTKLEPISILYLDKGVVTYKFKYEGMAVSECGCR

B1: FS315G74N/K76T/P85T-hFcLALA (Fc fusion)
chain: GNCWLRQAKNGRCQVLYKTELSKEECCSTGRLSTSWTEEDVNDNTLFKWMIFNGGAPNCIPCKETCENVDCGPNKTCRMNKKNKTRCVCAPDCSNITWKGPVCGLDGKTYRNECALLKARCKEQPELEVQYQGRCKKTCRDVFCPGSSTCVVDQTNNAYCVTCNRICPEPASSEQYLCGNDGVTYSSACHLRKATCLLGRSIGLAYEGKCIKAKSCEDIQCTGGKKCLWDFKVGRGRCSLCDELCPDSKSDEPVCASDNATYASECAMKEAACSSGVLLEVKHSGSCNSISEDTEEEEEDEDQDYSFPISSILEW[here human IgG1 Fc with changes without letters]
B2: FS315P85T-hFcLALA (Fc fusion)
chain: GNCWLRQAKNGRCQVLYKTELSKEECCSTGRLSTSWTEEDVNDNTLFKWMIFNGGAPNCIPCKETCENVDCGPGKKCRMNKKNKTRCVCAPDCSNITWKGPVCGLDGKTYRNECALLKARCKEQPELEVQYQGRCKKTCRDVFCPGSSTCVVDQTNNAYCVTCNRICPEPASSEQYLCGNDGVTYSSACHLRKATCLLGRSIGLAYEGKCIKAKSCEDIQCTGGKKCLWDFKVGRGRCSLCDELCPDSKSDEPVCASDNATYASECAMKEAACSSGVLLEVKHSGSCNSISEDTEEEEEDEDQDYSFPISSILEW[here human IgG1 Fc with changes without letters]
B3: FS315G74N/K76S-hFcLALA (Fc fusion)
chain: GNCWLRQAKNGRCQVLYKTELSKEECCSTGRLSTSWTEEDVNDNTLFKWMIFNGGAPNCIPCKETCENVDCGPNKSCRMNKKNKPRCVCAPDCSNITWKGPVCGLDGKTYRNECALLKARCKEQPELEVQYQGRCKKTCRDVFCPGSSTCVVDQTNNAYCVTCNRICPEPASSEQYLCGNDGVTYSSACHLRKATCLLGRSIGLAYEGKCIKAKSCEDIQCTGGKKCLWDFKVGRGRCSLCDELCPDSKSDEPVCASDNATYASECAMKEAACSSGVLLEVKHSGSCNSISEDTEEEEEDEDQDYSFPISSILEW[here human IgG1 Fc with changes without letters]
notes: printed only as 'G74N/K76S'
B4: FS315K75N/C77T/K82T-hFcLALA (Fc fusion)
chain: GNCWLRQAKNGRCQVLYKTELSKEECCSTGRLSTSWTEEDVNDNTLFKWMIFNGGAPNCIPCKETCENVDCGPGNKTRMNKTNKPRCVCAPDCSNITWKGPVCGLDGKTYRNECALLKARCKEQPELEVQYQGRCKKTCRDVFCPGSSTCVVDQTNNAYCVTCNRICPEPASSEQYLCGNDGVTYSSACHLRKATCLLGRSIGLAYEGKCIKAKSCEDIQCTGGKKCLWDFKVGRGRCSLCDELCPDSKSDEPVCASDNATYASECAMKEAACSSGVLLEVKHSGSCNSISEDTEEEEEDEDQDYSFPISSILEW[here human IgG1 Fc with changes without letters]
modifications: N-linked glycan on N75 (69.7% occupancy)
notes: hyperglycosylated variant
B5: FS315R78N/N80T-hFcLALA (Fc fusion)
chain: GNCWLRQAKNGRCQVLYKTELSKEECCSTGRLSTSWTEEDVNDNTLFKWMIFNGGAPNCIPCKETCENVDCGPGKKCNMTKKNKPRCVCAPDCSNITWKGPVCGLDGKTYRNECALLKARCKEQPELEVQYQGRCKKTCRDVFCPGSSTCVVDQTNNAYCVTCNRICPEPASSEQYLCGNDGVTYSSACHLRKATCLLGRSIGLAYEGKCIKAKSCEDIQCTGGKKCLWDFKVGRGRCSLCDELCPDSKSDEPVCASDNATYASECAMKEAACSSGVLLEVKHSGSCNSISEDTEEEEEDEDQDYSFPISSILEW[here human IgG1 Fc with changes without letters]
B6: FS315R86N/V88T-hFcLALA (Fc fusion)
chain: GNCWLRQAKNGRCQVLYKTELSKEECCSTGRLSTSWTEEDVNDNTLFKWMIFNGGAPNCIPCKETCENVDCGPGKKCRMNKKNKPNCTCAPDCSNITWKGPVCGLDGKTYRNECALLKARCKEQPELEVQYQGRCKKTCRDVFCPGSSTCVVDQTNNAYCVTCNRICPEPASSEQYLCGNDGVTYSSACHLRKATCLLGRSIGLAYEGKCIKAKSCEDIQCTGGKKCLWDFKVGRGRCSLCDELCPDSKSDEPVCASDNATYASECAMKEAACSSGVLLEVKHSGSCNSISEDTEEEEEDEDQDYSFPISSILEW[here human IgG1 Fc with changes without letters]
B7: FS315G74N/K76T-hFcLALA (Fc fusion)
chain: GNCWLRQAKNGRCQVLYKTELSKEECCSTGRLSTSWTEEDVNDNTLFKWMIFNGGAPNCIPCKETCENVDCGPNKTCRMNKKNKPRCVCAPDCSNITWKGPVCGLDGKTYRNECALLKARCKEQPELEVQYQGRCKKTCRDVFCPGSSTCVVDQTNNAYCVTCNRICPEPASSEQYLCGNDGVTYSSACHLRKATCLLGRSIGLAYEGKCIKAKSCEDIQCTGGKKCLWDFKVGRGRCSLCDELCPDSKSDEPVCASDNATYASECAMKEAACSSGVLLEVKHSGSCNSISEDTEEEEEDEDQDYSFPISSILEW[here human IgG1 Fc with changes without letters]
notes: printed only as 'G74N/K76T'
B8: FS315K(76,81,82)E/V88E-hFcLALA (Fc fusion)
chain: GNCWLRQAKNGRCQVLYKTELSKEECCSTGRLSTSWTEEDVNDNTLFKWMIFNGGAPNCIPCKETCENVDCGPGKECRMNEENKPRCECAPDCSNITWKGPVCGLDGKTYRNECALLKARCKEQPELEVQYQGRCKKTCRDVFCPGSSTCVVDQTNNAYCVTCNRICPEPASSEQYLCGNDGVTYSSACHLRKATCLLGRSIGLAYEGKCIKAKSCEDIQCTGGKKCLWDFKVGRGRCSLCDELCPDSKSDEPVCASDNATYASECAMKEAACSSGVLLEVKHSGSCNSISEDTEEEEEDEDQDYSFPISSILEW[here human IgG1 Fc with changes without letters]
B9: FS315ΔHBS-hFcLALA (Fc fusion)
chain: GNCWLRQAKNGRCQVLYKTELSKEECCSTGRLSTSWTEEDVNDNTLFKWMIFNGGAPNCIPCKETCENVDCGPGSTCVVDQTNNAYCVCAPDCSNITWKGPVCGLDGKTYRNECALLKARCKEQPELEVQYQGRCKKTCRDVFCPGSSTCVVDQTNNAYCVTCNRICPEPASSEQYLCGNDGVTYSSACHLRKATCLLGRSIGLAYEGKCIKAKSCEDIQCTGGKKCLWDFKVGRGRCSLCDELCPDSKSDEPVCASDNATYASECAMKEAACSSGVLLEVKHSGSCNSISEDTEEEEEDEDQDYSFPISSILEW[here human IgG1 Fc with changes without letters]
B10: FS315R78E/K82E-hFcLALA (Fc fusion)
chain: GNCWLRQAKNGRCQVLYKTELSKEECCSTGRLSTSWTEEDVNDNTLFKWMIFNGGAPNCIPCKETCENVDCGPGKKCEMNKENKPRCVCAPDCSNITWKGPVCGLDGKTYRNECALLKARCKEQPELEVQYQGRCKKTCRDVFCPGSSTCVVDQTNNAYCVTCNRICPEPASSEQYLCGNDGVTYSSACHLRKATCLLGRSIGLAYEGKCIKAKSCEDIQCTGGKKCLWDFKVGRGRCSLCDELCPDSKSDEPVCASDNATYASECAMKEAACSSGVLLEVKHSGSCNSISEDTEEEEEDEDQDYSFPISSILEW[here human IgG1 Fc with changes without letters]

One experiment has as its target T1, Myostatin. Description: SPR. For orientation: SPR reads the build-up and loss of mass on a sensor chip optically.
Consider B1, for which the Kd (usually the concentration at which binding is half-saturated) was determined as 0.0116 nM.

Take B2: the Kd is 0.0124 nM.

Consider B3, for which the Kd turned out to be 0.0116 nM.

Take B4: the affinity, expressed as Kd, was 0.0403 nM.

The molecule B5 showed a Kd of 0.013 nM.

B6 displayed a Kd of 0.0127 nM.

Molecule B7 returned a Kd of 0.0111 nM.

The target in a further experiment is T1, Myostatin. Kind of experiment: cell-based or functional assay.
With B1, the “Myostatin IC50, cell-based assay for SMAD pathway (A204 luciferase reporter)” value (“Myostatin IC50, cell-based assay” for short) worked out at 1 nM.

With B3, the “Myostatin IC50, cell-based assay” value was determined as 0.9 nM.

Turning to B4, the “Myostatin IC50, cell-based assay” value is 0.7 nM and 1.8 nM.

Take B8: the “Myostatin IC50, cell-based assay” value was determined as 0.6 nM.

The target in another experiment is T2, Activin A. Description: cell-based or functional assay.
Turning to B9, the “Activin A IC50, cell-based assay for SMAD pathway (A204 luciferase reporter)” value (“Activin A IC50, cell-based assay” below) turned out to be 1.4 nM.

Regarding B1, the “Activin A IC50, cell-based assay” value is 1.3 nM.

In the case of B10, the “Activin A IC50, cell-based assay” value worked out at 1 nM.

As for B3, the “Activin A IC50, cell-based assay” value is 1.3 nM.

For the molecule B8, the “Activin A IC50, cell-based assay” value worked out at 0.6 nM.

For a further experiment, the target named is T3, BMP-10. Description: SPR (BIAcore), anti-human Fc capture, BMP-10 as analyte.
For B4, the binding result is recorded as “no binding (tested: 25-0.190 nM)”.

On to B6, for which the binding result is given as “no binding (tested: 25-0.190 nM)”.

A further experiment has as its target T1, Myostatin. Kind of experiment: SPR (BIAcore), anti-human Fc capture, myostatin as analyte.
In the case of B2, the Kd was 0.0124 nM.

On to B4, for which binding was characterised by a dissociation constant (Kd) of 0.0403 nM.

Turning to B5, the Kd was 0.013 nM.

Consider B8, for which the Kd worked out at 0.0045 nM.

Turning to B6, the dissociation constant Kd stood at 0.0127 nM.

The record behind these values is patent US20180362604A1 (SHIRE HUMAN GENETIC THERAPIES, published 2018).
